Drawing on patent publication US20240425546A1 (NANTONG YICHEN BIOPHARMA, published 2024), this text covers Kd for 1 molecule.

For test [1], the target named is T1, E64AK-A9-mFc (mouse, UniProt P01863 123-330 = IgG part).
T1 construct: scFv fused to the Fc of mouse IgG2a by a linker; also called E64AK-A9-mFc fusion antibody; E64AK-A9-mFc antibody fusion protein
The test can be described thus: ELISA, antigen coated. (In general: In an ELISA, binding on a coated surface is turned into a signal by an enzyme label.)

Test [2] deals with T2, CL-E2-mFc (mouse, UniProt P01863 123-330 = IgG part).
T2 construct: scFv fused to the Fc of mouse IgG2a by a linker, made in HEK 293F; also called CL-E2-mFc fusion protein; CL-E2-mFc antibody
The test can be described thus: ELISA, antigen coated.

B1: hIL-1βE64AK (ligand)
chain: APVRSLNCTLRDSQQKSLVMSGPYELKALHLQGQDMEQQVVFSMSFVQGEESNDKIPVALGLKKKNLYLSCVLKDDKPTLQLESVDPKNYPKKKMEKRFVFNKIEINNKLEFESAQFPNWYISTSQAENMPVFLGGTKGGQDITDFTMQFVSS
modifications: Nε-acryloyl-L-lysine (AK) at position 64
notes: Non-canonical amino acid put in by amber suppression
One may read the Kd as the equilibrium constant for the complex coming apart. As for B1, the values for the Kd in test [1] and in test [2] were 1.2 nM and 4.2 nM, respectively.
